{"source": "PubChem BioAssay AID624296", "about": "(National Center for Advancing Translational Sciences (NCATS), 2012)", "note": "“And” between values parts separate entries of the source, which are not always exact repeats. Equal entries are not always repeated. Screen size: about 350,000 compounds; about 9,900 (2.8%) were called active. The inconclusive results got no clear call from the source; some entries with a clear call stand among them for comparison. Calls come from the whole dose curve; as a rule, active = well fitted activation curve with a large enough effect; inconclusive = small, poorly fitted or top-dose-only effect; inactive = no such curve, though single readings can be large or run the other way. Potencies of inconclusive entries are doubtful fits and often do not repeat. Potency is the fitted concentration of half-maximal effect; tags give direction and shape of the fitted curve.", "data": [{"assay": "A quantitative high throughput screen for small molecules that induce DNA re-replication in MCF 10a normal breast cells; note: nearly all actives have a fitted effect of over 50% in size; for activity, positive = re-replication: % of control where 0% means no effect.", "conditions": "MCF 10A DNA re-replication, Hoechst nuclear intensity, 48 h; activity, positive = re-replication: at 46.1 µM (top of the series)", "values": [{"compound": "COc1ccc(C(=O)NCCNc2ncc(C(F)(F)F)cc2Cl)cc1[N+](=O)[O-]", "Potency": "inconclusive: 23.1 µM [activator, single point]"}, {"compound": "COc1ccccc1C(=O)N1C(CC(=O)Nc2cc(Cl)ccc2C)C(=O)NC2CCCCC21", "note": "(centres undefined)", "Potency": "inconclusive: 0.517 µM [activator, full curve, poor fit]"}, {"compound": "Cc1sc2ncnc(N3CCC(C(=O)Nc4ccc(Cl)cc4Cl)CC3)c2c1C", "Potency": "inconclusive: 25.9 µM [activator, single point]"}, {"compound": "CCN(CC(=O)Nc1cc(Cl)ccc1C)C(=O)CCOc1ccccc1C", "Potency": "inactive"}, {"compound": "Fc1ccc(N2CCN(C(c3cccs3)c3nnnn3C3CCCC3)CC2)cc1", "note": "(centres undefined)", "Potency": "inconclusive: 18.4 µM [activator, single point]"}, {"compound": "COC(=O)c1ccc(/C=C/c2c(-c3ccc(OC)cc3)oc3ccccc23)cc1", "Potency": "inconclusive: 9.2 µM [activator, partial curve, poor fit]"}, {"compound": "CCc1cccc2c(C(=O)C(NCCOC)c3ccccc3)c[nH]c12", "note": "(centres undefined)", "Potency": "inconclusive: 9.2 µM [activator, partial curve]"}, {"compound": "CC(=O)c1ccccc1OCCOc1ccccc1C(C)=O", "activity, positive = re-replication": "inactive: -8.93% [at 9.22 µM]"}, {"compound": "Nc1c(Cl)cc(-c2csc(NC(CO)c3nc4ccccc4n3CCOCCO)n2)cc1Cl", "note": "(centres undefined)", "Potency": "inconclusive: 16.4 µM [activator, partial curve, poor fit]"}, {"compound": "Brc1ccc(-n2cc(-c3ccccc3)c3c(NN4CCOCC4)ncnc32)cc1", "Potency": "inconclusive: 2.31 µM [activator, full curve]"}, {"compound": "COc1ccc(/C=C/C(=O)c2cc(F)ccc2OC(=O)c2ccc(OC)c(OC)c2)cc1OC", "Potency": "inactive and inconclusive: 11.2 µM [activator, single point]"}, {"compound": "CCN(CC)CCn1c2c(c(SCC(=O)Nc3nc(C)cs3)nc1=O)CCCC2", "Potency": "inconclusive: 20.6 µM [activator, single point]"}, {"compound": "Cc1ccc(CSc2nc3c(c(=O)[nH]2)CCC3)cc1", "Potency": "inconclusive: 0.0116 µM [activator, partial curve, poor fit]"}, {"compound": "CCCCC(=O)Nc1nc(C)c(-c2csc(Nc3ccccc3OC)n2)s1", "Potency": "inconclusive: 20.6 µM [activator, single point]"}, {"compound": "NC(=O)C1CCCN(C(=O)CNC(=O)C23CC4CC(CC(C4)C2)C3)C1", "note": "(centres undefined)", "Potency": "inactive"}, {"compound": "CC(=O)C(C)Oc1ccc2c3c(c(=O)oc2c1C)CCCC3", "note": "(centres undefined)", "Potency": "inconclusive: 2.91 µM [activator, full curve]"}, {"compound": "Cc1ccccc1-n1c(C)cc(/C=C(\\C#N)C(=O)NCC2CCCO2)c1C", "note": "(centres undefined)", "Potency": "inconclusive: 29.1 µM [activator, single point]"}, {"compound": "COc1cc(OC)cc(C(=O)N2CCN(c3ccccc3F)CC2)c1", "Potency": "inconclusive: 6.51 µM [activator, single point]"}, {"compound": "Oc1cc(Nc2ccccc2)cc2cccnc12", "Potency": "inconclusive: 18.4 µM [activator, partial curve, poor fit]"}, {"compound": "CCc1c(C)nc2ccc(Br)cc2c1Cl", "Potency": "inconclusive: 12.6 µM [activator, partial curve, poor fit]"}, {"compound": "COc1ccc(C(=O)Nc2cccc(C)c2)cc1S(=O)(=O)N1CCOCC1", "Potency": "active: 18.4 µM"}, {"compound": "Cc1nc(-c2cccc(NC(=O)c3ccc(-n4nccc4C)cc3)c2)cs1", "Potency": "inconclusive: 16.4 µM [activator, single point]"}, {"compound": "O=C(COc1ccccc1)N[C@@H]1c2ccccc2CC[C@H]1OCc1ccccc1", "Potency": "inactive"}, {"compound": "NC(=O)c1cc2ccccc2o/c1=N\\NC(=O)c1ccccc1O", "Potency": "inactive"}, {"compound": "O=c1c(O)c(-c2ccccc2)oc2cc(O)cc(O)c12", "Potency": "inconclusive: 32.6 µM [activator, single point]"}, {"compound": "COc1ccc(OC)c(N/C=C/C(=O)c2ccccc2)c1", "Potency": "inconclusive: 23.1 µM [activator, partial curve, poor fit]"}, {"compound": "CCOC(=O)c1c(-c2cccs2)csc1NC(=O)CSc1ncn[nH]1", "Potency": "inconclusive: 29.1 µM [activator, single point]"}, {"compound": "Cc1cc(N2CCOCC2)nc2ccc(NC(=S)NCCC(C)C)cc12", "Potency": "inconclusive: 29.1 µM [activator, single point]"}, {"compound": "CCOC(=O)c1ccc(N=Cc2nc(-c3ccccc3)oc2OC(C)=O)cc1", "Potency": "inconclusive: 20.6 µM [activator, single point]"}, {"compound": "O=C(NCC1CCCCC1)NCC1CCCCC1", "Potency": "inactive"}, {"compound": "CN1C(CC(=O)Nc2ccc(Cl)cc2Cl)c2ccccc2CC1(C)C", "note": "(centres undefined)", "Potency": "inconclusive: 4.11 µM [activator, single point]"}, {"compound": "Cn1c(N)c(C(=O)COC(=O)COc2ccccc2Cl)c(=O)n(C)c1=O", "Potency": "inactive"}, {"compound": "C=CCN(C(=O)c1ccc2snnc2c1)c1ccccc1", "Potency": "inactive"}, {"compound": "CCOc1ccc(NC(=O)CCC(=O)c2ccc(OC)cc2)cc1", "Potency": "inactive"}, {"compound": "CC(NC(=O)c1cccs1)C(c1cccs1)N1CCN(c2ccccc2)CC1", "note": "(centres undefined)", "Potency": "inactive"}, {"compound": "COc1ccc(NC(=O)CCc2nc3ccccc3[nH]2)cc1", "Potency": "inactive"}, {"compound": "CCN(CC)C(=O)COc1ccc(-c2nnc(Nc3ccc(OC)c(C(=O)NC)c3)c3ccccc23)cc1", "Potency": "inconclusive: 23.1 µM [activator, single point]"}, {"compound": "COc1cc(-c2ccc3oc(-c4ccsc4)c(C#CC4(O)CCCCC4)c3c2)cc(OC)c1OC", "Potency": "active: 18.4 µM"}, {"compound": "CC1CCC2(CC1)NC(=O)N(CC(=O)NCCc1c[nH]c3ccccc13)C2=O", "note": "(centres undefined)", "Potency": "inconclusive: 4.61 µM [activator, single point]"}, {"compound": "COc1ccc(C(=O)NCc2ccncc2)cc1S(=O)(=O)N1CCOCC1", "Potency": "inconclusive: 32.6 µM [activator, partial curve, poor fit]"}, {"compound": "O=C(O)[C@H](Cc1ccccc1)N1C(=O)c2c(Cl)c(Cl)c(Cl)c(Cl)c2C1=O", "Potency": "inactive"}, {"compound": "Cc1ccc(/C(N)=N/OC(=O)Cc2cccc3ccccc23)cc1", "Potency": "inconclusive: 29.1 µM [activator, partial curve, poor fit]"}, {"compound": "O=C(Nc1ccc(NC(=O)c2ccc(Cl)c(S(=O)(=O)N3CCOCC3)c2)cc1)c1ccccc1", "Potency": "inactive"}, {"compound": "COc1ccc(-c2cc(=O)oc3c(C)c(O)ccc23)cc1", "Potency": "inconclusive: 6.51 µM [activator, single point]"}, {"compound": "COC(=O)c1c(C)[nH]c(C(=O)OC(C)C(=O)N(C)C2CCCCC2)c1C", "note": "(centres undefined)", "Potency": "inactive"}, {"compound": "CCOCCCNCc1cn(-c2ccc(F)cc2F)nc1-c1ccccc1C", "Potency": "inactive"}, {"compound": "O=C(Nc1ccccn1)C1CCN(c2ncnc3c2nc2n3CCCCC2)CC1", "Potency": "inactive"}, {"compound": "CCN(CC)c1ccc(C2C(C(=O)OC(C)C)C(=O)CC(C)(O)C2C(=O)OC(C)C)cc1", "note": "(centres undefined)", "Potency": "inactive"}, {"compound": "CCOC(=O)Cn1nc(C)cc1NC(=O)c1cc(OC)c(OC)c(OC)c1", "Potency": "active: 23.1 µM"}, {"compound": "CC(C)c1ccc(S(=O)(=O)c2cc3cc(Br)ccc3oc2=O)cc1", "Potency": "active: 8.2 µM"}, {"compound": "CCc1nnc(NC(=O)CN2C(=O)/C(=C/c3cc(OC)c(OC)c(OC)c3)SC2=S)s1", "Potency": "inconclusive: 20.6 µM [activator, single point]"}, {"compound": "COc1cc(NC(=O)C2=C(N3CCOCC3)/C(=C\\c3ccc(Cl)cc3Cl)CC2)cc(OC)c1OC", "Potency": "inconclusive: 9.2 µM [activator, partial curve]"}, {"compound": "Cc1ccc(Nc2nc(-c3cccnc3)nc3ccccc23)cc1", "Potency": "active: 14.6 µM"}, {"compound": "CCOC(=O)C/C(C)=N/NC(=O)C1CC1(c1ccccc1)c1ccccc1", "note": "(centres undefined)", "Potency": "inconclusive: 18.4 µM [activator, single point]"}, {"compound": "CCCCCOC(=O)Nc1ccc(S(=O)(=O)Nn2cnnc2)cc1", "Potency": "inconclusive: 6.51 µM [activator, partial curve, poor fit]"}, {"compound": "O=C(CN1C(=O)c2ccccc2C1=O)Nc1ccccc1C(F)(F)F", "Potency": "inconclusive: 1.03 µM [activator, single point]"}, {"compound": "S=C(NC1CCCCC1)N1CCN(c2ccccn2)CC1", "Potency": "inconclusive: 3.26 µM [activator, single point]"}, {"compound": "C=C(C)C(O)CC/C(C)=C/Cc1c(O)ccc(C(=O)/C=C/c2ccc(O)cc2)c1O", "note": "(centres undefined)", "Potency": "active: 20.6 µM"}, {"compound": "COc1ccc(C(=O)Nc2nnc(-c3ccccc3)s2)cc1", "Potency": "inconclusive: 5.17 µM [activator, single point]"}, {"compound": "O=S(c1ccc2ccccc2c1)c1cnns1", "note": "(centres undefined)", "Potency": "active: 13 µM"}, {"compound": "Cc1onc(-c2ccccc2Cl)c1C(=O)NC(=S)Nc1ccccc1C(N)=O", "Potency": "inconclusive: 20.6 µM [activator, single point]"}, {"compound": "Cc1ccc(-c2[nH]c3ccccc3c2SCCNC(=O)c2cc3ccccc3oc2=O)cc1", "Potency": "inconclusive: 18.4 µM [activator, partial curve, poor fit]"}, {"compound": "CCOC(=O)C1CCN(C(=O)COC(=O)c2cccc(NS(=O)(=O)c3ccccc3)c2)CC1", "Potency": "inactive"}, {"compound": "Cc1ccc2[nH]c3c(c2c1)CC/C(=C/c1ccccc1)C3=O", "Potency": "inconclusive: 20.6 µM [activator, single point]"}, {"compound": "Cc1ccc(NC(=O)c2ccc3c(c2)OCCO3)cc1S(=O)(=O)Nc1cccc(Cl)c1", "Potency": "inconclusive: 29.1 µM [activator, single point]"}, {"compound": "CCC(=O)Nc1cccc(NC(=S)NC(=O)c2ccccc2C)c1", "Potency": "inconclusive: 1.16 µM [activator, partial curve, poor fit]"}, {"compound": "O=C1Nc2ccccc2C1Cc1ccccc1", "note": "(centres undefined)", "Potency": "inactive"}, {"compound": "O=C(NCc1ccc(C(F)(F)F)cc1)C1CC(c2cccc(F)c2)=NO1", "note": "(centres undefined)", "Potency": "inconclusive: 23.1 µM [activator, single point]"}, {"compound": "COC(=O)c1c(NC(=S)NNC(=O)c2ccc(Cl)s2)sc(C(=O)N(C)C)c1C", "Potency": "inconclusive: 29.1 µM [activator, single point]"}]}]}
